{"source": "the supplement of paper PMC4604168 (melanoma cell lines)", "note": "Some of the results follow. Many values rest on one well or one pass, so single values are uncertain.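 Also: cell number obtained by counting DAPI-stained nuclei in high-throughput microscope images with image analysis software, screen run in 1,536-well plates.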"}
{"system": "LOXIMVI", "assay": "cell count relative to DMSO control; melanoma cells; higher = more viable cells", "conditions": "library dose: low library concentration; 72 h", "units": {"cell count": "%"}}
{"smiles": "CN1CCN(c2ccc3nc(-c4c(N)c5c(F)cccc5[nH]c4=O)[nH]c3c2)CC1", "note": "[Dovitinib] + C=C(c1ccc(C(=O)O)cc1)c1cc2c(cc1C)C(C)(C)CCC2(C)C [Bexarotene] (first compound 0.1 µM, partner dose 2 µM)", "cell count": 56.7}
{"smiles": "CNC(=O)c1cc(Oc2ccc(NC(=O)Nc3ccc(Cl)c(C(F)(F)F)c3)cc2)ccn1", "note": "[sorafenib] + CC(=O)c1c(C)c2cnc(Nc3ccc(N4CCNCC4)cn3)nc2n(C2CCCC2)c1=O [palbociclib] (first compound 0.4 µM, partner dose 0.04 µM)", "cell count": 59}
{"smiles": "C=CCNC1=C2C[C@@H](C)C[C@H](OC)[C@H](O)[C@@H](C)/C=C(\\C)[C@H](OC(N)=O)[C@@H](OC)/C=C\\C=C(/C)C(=O)NC(=CC1=O)C2=O", "note": "[Tanespimycin] + OCc1c[nH]c2ccccc12 [Indole-3-carbinol] (first compound 0.002 µM, partner dose 0.8 µM)", "cell count": 122}
{"smiles": "CS(=O)(=O)CCNCc1ccc(-c2ccc3ncnc(Nc4ccc(OCc5cccc(F)c5)c(Cl)c4)c3c2)o1", "note": "[lapatinib] + Cn1c(Nc2ccc(C(F)(F)F)cc2)nc2cc(Oc3ccnc(-c4ncc(C(F)(F)F)[nH]4)c3)ccc21 [CHIR265] (first compound 0.8 µM, partner dose 0.08 µM)", "cell count": 71.7}
{"smiles": "CN1CCN(c2ccc3nc(-c4c(N)c5c(F)cccc5[nH]c4=O)[nH]c3c2)CC1", "note": "[Dovitinib] + C=CCNC1=C2C[C@@H](C)C[C@H](OC)[C@H](O)[C@@H](C)/C=C(\\C)[C@H](OC(N)=O)[C@@H](OC)/C=C\\C=C(/C)C(=O)NC(=CC1=O)C2=O [Tanespimycin] (first compound 0.1 µM, partner dose 0.002 µM)", "cell count": 88.4}
{"smiles": "CN1CCN(c2ccc3nc(-c4c(N)c5c(F)cccc5[nH]c4=O)[nH]c3c2)CC1", "note": "[Dovitinib] + Nc1cccc2c1CN(C1CCC(=O)NC1=O)C2=O [lenalidomide] (first compound 0.1 µM, partner dose 1 µM)", "cell count": 80.6}
{"smiles": "CN1CCN(c2ccc3nc(-c4c(N)c5c(F)cccc5[nH]c4=O)[nH]c3c2)CC1", "note": "[Dovitinib] + O=C(O)[C@@H]1[O][Sb](=[O])([O][Sb]2(=[O])[O][C@H]([C@H](O)CO)[C@H](O)[C@H](C(=O)O)[O]2)[O][C@H]([C@H](O)CO)[C@@H]1O [stibogluconate] (first compound 0.1 µM, partner dose 2 µM)", "cell count": 93.3}
{"smiles": "C=CCNC1=C2C[C@@H](C)C[C@H](OC)[C@H](O)[C@@H](C)/C=C(\\C)[C@H](OC(N)=O)[C@@H](OC)/C=C\\C=C(/C)C(=O)NC(=CC1=O)C2=O", "note": "[Tanespimycin] + COc1ccc(Cl)c(Nc2nc3ccccc3nc2NS(=O)(=O)c2cccc(NC(=O)C(C)(C)N)c2)c1 [XL147] (first compound 0.002 µM, partner dose 0.8 µM)", "cell count": 90.1}
{"smiles": "CN1CCN(c2ccc3nc(-c4c(N)c5c(F)cccc5[nH]c4=O)[nH]c3c2)CC1", "note": "[Dovitinib] + Nc1ncn([C@H]2C[C@H](O)[C@@H](CO)O2)c(=O)n1 [decitabine] (first compound 0.1 µM, partner dose 0.1 µM)", "cell count": 74.9}
{"smiles": "C[C@@H](Oc1cc(-c2cnn(C3CCNCC3)c2)cnc1N)c1c(Cl)ccc(F)c1Cl", "note": "[Crizotinib] + Cc1nc(Nc2ncc(C(=O)Nc3c(C)cccc3Cl)s2)cc(N2CCN(CCO)CC2)n1 [dasatanib] (first compound 0.2 µM, partner dose 0.004 µM)", "cell count": 91.5}
{"smiles": "CS(=O)(=O)CCNCc1ccc(-c2ccc3ncnc(Nc4ccc(OCc5cccc(F)c5)c(Cl)c4)c3c2)o1", "note": "[lapatinib] + CC(=O)c1c(C)c2cnc(Nc3ccc(N4CCNCC4)cn3)nc2n(C2CCCC2)c1=O [palbociclib] (first compound 0.8 µM, partner dose 0.04 µM)", "cell count": 119}
{"smiles": "CS(=O)(=O)CCNCc1ccc(-c2ccc3ncnc(Nc4ccc(OCc5cccc(F)c5)c(Cl)c4)c3c2)o1", "note": "[lapatinib] + COCC[n+]1c2c(n(Cc3cnccn3)c1C)C(=O)c1ccccc1C2=O [YM155] (first compound 0.8 µM, partner dose 0.0004 µM)", "cell count": 46.6}
{"smiles": "CN1CCN(c2ccc3nc(-c4c(N)c5c(F)cccc5[nH]c4=O)[nH]c3c2)CC1", "note": "[Dovitinib] + COCC[n+]1c2c(n(Cc3cnccn3)c1C)C(=O)c1ccccc1C2=O [YM155] (first compound 0.1 µM, partner dose 0.0004 µM)", "cell count": 112}
{"smiles": "C[C@@H](Oc1cc(-c2cnn(C3CCNCC3)c2)cnc1N)c1c(Cl)ccc(F)c1Cl", "note": "[Crizotinib] + CCCS(=O)(=O)Nc1ccc(F)c(C(=O)c2c[nH]c3ncc(Cl)cc23)c1F [PLX4720] (first compound 0.2 µM, partner dose 0.08 µM)", "cell count": 124}
{"smiles": "C=CCNC1=C2C[C@@H](C)C[C@H](OC)[C@H](O)[C@@H](C)/C=C(\\C)[C@H](OC(N)=O)[C@@H](OC)/C=C\\C=C(/C)C(=O)NC(=CC1=O)C2=O", "note": "[Tanespimycin] + Cc1nc(Nc2ncc(C(=O)Nc3c(C)cccc3Cl)s2)cc(N2CCN(CCO)CC2)n1 [dasatanib] (first compound 0.002 µM, partner dose 0.004 µM)", "cell count": 81.2}
{"smiles": "CS(=O)(=O)CCNCc1ccc(-c2ccc3ncnc(Nc4ccc(OCc5cccc(F)c5)c(Cl)c4)c3c2)o1", "note": "[lapatinib] + Nc1nc(F)nc2c1ncn2[C@@H]1O[C@H](CO)[C@@H](O)[C@@H]1O [fludarabine] (first compound 0.8 µM, partner dose 0.2 µM)", "cell count": 118}
{"smiles": "C[C@@H](Oc1cc(-c2cnn(C3CCNCC3)c2)cnc1N)c1c(Cl)ccc(F)c1Cl", "note": "[Crizotinib] + Nc1cccc2c1CN(C1CCC(=O)NC1=O)C2=O [lenalidomide] (first compound 0.2 µM, partner dose 1 µM)", "cell count": 140}
{"smiles": "C[C@@H](Oc1cc(-c2cnn(C3CCNCC3)c2)cnc1N)c1c(Cl)ccc(F)c1Cl", "note": "[Crizotinib] + COc1ccc(Cl)c(Nc2nc3ccccc3nc2NS(=O)(=O)c2cccc(NC(=O)C(C)(C)N)c2)c1 [XL147] (first compound 0.2 µM, partner dose 0.8 µM)", "cell count": 117}
{"smiles": "CS(=O)(=O)CCNCc1ccc(-c2ccc3ncnc(Nc4ccc(OCc5cccc(F)c5)c(Cl)c4)c3c2)o1", "note": "[lapatinib] + CCCS(=O)(=O)Nc1ccc(F)c(C(=O)c2c[nH]c3ncc(Cl)cc23)c1F [PLX4720] (first compound 0.8 µM, partner dose 0.08 µM)", "cell count": 66.2}
